# Results: the BET-seq Pho4 binding data (Le et al. 2018)
# Some of the results follow. These are noisy estimates, calculated here from bound and input reads.
# Target: T1, Pho4 (S. cerevisiae) (UniProt P07270)
# T1 sequence: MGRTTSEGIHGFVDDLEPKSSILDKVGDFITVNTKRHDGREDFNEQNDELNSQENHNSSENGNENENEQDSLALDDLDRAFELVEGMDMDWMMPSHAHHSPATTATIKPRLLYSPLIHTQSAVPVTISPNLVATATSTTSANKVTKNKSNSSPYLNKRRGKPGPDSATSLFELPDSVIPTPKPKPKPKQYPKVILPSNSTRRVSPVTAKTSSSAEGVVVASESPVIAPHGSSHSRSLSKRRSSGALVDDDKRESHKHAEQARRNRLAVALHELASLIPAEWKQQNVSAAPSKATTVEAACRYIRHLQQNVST
# Assay: relative binding free energy (BET-seq); higher = weaker binding
# Conditions: reference: library average
row,Sequence,relative binding free energy [kcal/mol]
1,AGTGACACGTGAGTTG,0.26
2,GGTAGCACGTGTGATA,-0.14
3,TATGGCACGTGTGCTT,-0.05
4,GTATGCACGTGAAGCG,0.23
5,TTGTACACGTGTCGGG,0.13
6,GGGCACACGTGTCGGT,0.17
7,TAGGCCACGTGTATTT,-0.02
8,GGGTGCACGTGCAGGA,-0.01
9,ATTGTCACGTGTTAGA,0.15
10,ATTATCACGTGTAGTT,0.19
11,GCGATCACGTGGCGTT,0.31
12,TTTTACACGTGAGTAA,0.32
13,ACTGTCACGTGTCGTT,0.21
14,ATGAGCACGTGGGTAT,-0.31
15,CGGTTCACGTGGGGTG,0.03
16,GGATGCACGTGTGGTC,0.12
17,TGGACCACGTGGGTAT,-0.17
18,GCGGGCACGTGCGTAG,-0.16
19,ATTGTCACGTGATTCG,0.24
20,ATGTACACGTGTAGCT,0.12
21,AGGGACACGTGTCAGG,-0.01
22,GTGTGCACGTGGGTAT,-0.06
23,AGGATCACGTGGTGTG,0.11
24,TACGTCACGTGTGTCT,0.15
25,GGGGGCACGTGTATGA,-0.13
26,TTCTGCACGTGTATTA,-0.05

row,Sequence,relative binding free energy [kcal/mol]
1,AGGTACACGTGGGGTT,0.01
2,TTGCTCACGTGGGTTG,0.18
3,TTAGTCACGTGTCTTT,0
4,GGATCCACGTGCGTGG,0.03
5,AAGGGCACGTGTGCTG,-0.07
6,TTATTCACGTGTTTTA,0.18
7,CTGTACACGTGTATGG,-0.11
8,TGGAGCACGTGACCGT,0.15
9,CGTAACACGTGCGTGG,-0.13
10,TCGTACACGTGGGGGC,-0.14
11,AAGGTCACGTGCAGGT,-0.03
12,GGGAGCACGTGATAGT,0.12
13,CATGGCACGTGGGCGT,-0.36
14,GTTAACACGTGGCGTT,-0.03
15,TTGTGCACGTGGCGGA,-0.08
16,GTAGTCACGTGATTGG,0.22
17,GATATCACGTGGTGAT,0.24
18,TGCATCACGTGAATGG,0.22
19,TTAGTCACGTGAATAG,0.16
20,TCTGTCACGTGACGGG,0.15
21,TCGGGCACGTGGCGTC,-0.13
22,ATATGCACGTGGTTCG,-0.13
23,GAGGTCACGTGGAGTG,0.27
24,TGCTGCACGTGGTGCG,-0.19
25,GTAGTCACGTGTATCG,0.02
26,GATATCACGTGTTAGT,0.24

row,Sequence,relative binding free energy [kcal/mol]
1,TAAGCCACGTGGGGGA,-0.17
2,ATTAGCACGTGGGTAT,-0.2
3,TTCGGCACGTGTATAG,0
4,AATGACACGTGTAGTA,0.11
5,TGGGGCACGTGGGGGG,-0.14
6,TGGTTCACGTGATACT,0.32
7,TATTGCACGTGTTTTG,0.01
8,GTTGACACGTGTTAGC,0.17
9,TGGCTCACGTGTAGGC,0.31
10,TATGACACGTGCTGGT,-0.1
11,CTTTGCACGTGGGGGC,-0.21
12,AATTTCACGTGGCTTG,0.33
13,TAGGTCACGTGTAATG,0.14
14,GTCTACACGTGTGAGT,0.28
15,GGAATCACGTGTGATG,0.18
16,CGGGTCACGTGGTGTA,0.04
17,ATTACCACGTGGGGTA,-0.26
18,GAAGGCACGTGGTTGG,-0.02
19,ACTGACACGTGGGGTG,-0.14
20,ATTAGCACGTGTCGGA,0.03
21,GGTGTCACGTGGCGTA,0.02
22,TAGCGCACGTGAGGGG,0.11
23,GTCGGCACGTGAGGAG,0.1
24,GGTGCCACGTGAATAT,0.29
25,CGCGCCACGTGTGGTG,-0.02
26,GGTCCCACGTGTGTGT,-0.12

row,Sequence,relative binding free energy [kcal/mol]
1,ACGTACACGTGATGTT,0.13
2,ATTCGCACGTGGTGGA,-0.02
3,CAGTTCACGTGGTGAT,0.12
4,TTAGACACGTGCTGGA,-0.05
5,GTGTTCACGTGGATGT,0.31
6,GTGCACACGTGTTGTT,0.1
7,AGAATCACGTGTACGT,0.32
8,TCTAGCACGTGTGTGA,-0.13
9,AAAAACACGTGTTGTG,0.09
10,GTGGACACGTGAGTCT,0.26
11,TTGTTCACGTGGGAGC,0.2
12,TGAATCACGTGGAGCT,0.17
13,ATAGTCACGTGTGGCA,0.12
14,TTTTGCACGTGAGGCT,0.26
15,AACGACACGTGTTGGT,0.08
16,GAGTTCACGTGCGGGT,0.23
17,CGAGTCACGTGGGTTC,0.06
18,AGGCGCACGTGGGCTT,-0.29
19,TTTTACACGTGGTAGT,0.06
20,AGTAGCACGTGGTGTC,-0.24
21,ATCGGCACGTGTTAGA,0.04
22,CAGGTCACGTGTTGGT,0.16
23,CCTTTCACGTGATGTG,0.32
24,ACCAGCACGTGGGTGT,-0.1
25,ATGCGCACGTGTTAGA,-0.07
26,TGCAACACGTGGATGG,-0.03

row,Sequence,relative binding free energy [kcal/mol]
1,ACGTGCACGTGGCGTG,-0.33
2,TGGGGCACGTGTACCT,-0.01
3,AGGGTCACGTGCTATA,0.13
4,AGGTTCACGTGGTTTC,0.27
5,TTGAGCACGTGAATGA,0.12
6,AGTTTCACGTGGGTGG,0.15
7,TTGTACACGTGGGAAT,0.03
8,TGCGGCACGTGGAGGT,-0.1
9,ATGATCACGTGGTAAT,0.06
10,TTTATCACGTGATCTT,0.19
11,AAGATCACGTGGTGGA,0.1
12,GGGGTCACGTGGGTGC,0.1
13,TTGCGCACGTGTGAGG,-0.05
14,TGGGTCACGTGCTATG,0.1
15,GGTGGCACGTGGATGG,0.04
16,TAGTACACGTGGTTTG,0.08
17,AACGGCACGTGGTAGA,-0.07
18,CGGATCACGTGCAGGG,0.09
19,ATGGTCACGTGGGAAC,0.03
20,CTGTGCACGTGGTGGC,-0.11
21,TATTTCACGTGTATAG,0.15
22,GGTTACACGTGGTACG,-0.03
23,CTCGGCACGTGGATGG,-0.14
24,AGTATCACGTGTTTTG,0.16
25,TAGTGCACGTGGGACA,-0.1
26,CGTGACACGTGAGGCG,0.19

row,Sequence,relative binding free energy [kcal/mol]
1,AATGTCACGTGATGTT,0.21
2,GGATTCACGTGTTGTT,0.32
3,GGAATCACGTGGGAAG,0.04
4,GAGGGCACGTGGTAGC,-0.08
5,ACAGTCACGTGGGGGG,-0.13
6,CTATACACGTGTGAGT,0.24
7,GTTGACACGTGTATCA,0.22
8,AGGAGCACGTGGTTAG,-0.15
9,TAGGGCACGTGGTCGC,-0.25
10,TGTTTCACGTGCATTA,0.34
11,TAGTTCACGTGCATGT,0.16
12,GGATTCACGTGCTGTG,0.19
13,TAGTCCACGTGGAGTT,0.17
14,TCGTTCACGTGTAGAG,0.24
15,ATAATCACGTGCATGT,0.06
16,CAAATCACGTGGTGTT,0.04
17,GGGGTCACGTGTACGT,0.22
18,TTTCACACGTGGGGTT,-0.13
19,TGATTCACGTGCGGGC,0.36
20,AAGAGCACGTGGATTT,-0.04
21,TTTGCCACGTGTAATG,-0.02
22,TTAGTCACGTGGTTAC,0.08
23,TTGTTCACGTGTATAC,0.2
24,TGTGTCACGTGTAACT,0.18
25,AGTTGCACGTGAATCG,0.21
26,TGATGCACGTGATTAG,0.03

row,Sequence,relative binding free energy [kcal/mol]
1,AGAGTCACGTGGGTTG,0
2,ATCGTCACGTGTTGCT,0.13
3,ATTGGCACGTGTGTGG,-0.03
4,TGTAACACGTGGTTCA,-0.12
5,AATGGCACGTGAATGG,0.06
6,GAGTTCACGTGGGAAT,0.43
7,GGTAACACGTGATGGA,0.11
8,CGTTTCACGTGTGTCT,0.26
9,AAGGTCACGTGTTCTG,0.12
10,GGTAACACGTGAGAGG,0.23
11,ATAGTCACGTGGTAGC,0.06
12,GTCTACACGTGGTAGG,0.21
13,TCGGTCACGTGATTGG,0.28
14,TTGTACACGTGGAAGG,0.08
15,GGCGTCACGTGTATAA,0.31
16,TTCGGCACGTGCAGGC,-0.04
17,CGTTGCACGTGTAGGT,-0.03
18,GGGTGCACGTGACTAG,0.09
19,CAGAGCACGTGTTTTG,-0.03
20,GGTGTCACGTGTACTA,0.24
21,TACCGCACGTGGGGTT,-0.25
22,ATGTACACGTGTATCT,0.22
23,CGAGGCACGTGTGAAG,-0.02
24,TTGGTCACGTGGGGTC,-0.03
25,TAATTCACGTGTATTT,0.13
26,TGCTTCACGTGAATGG,0.44

row,Sequence,relative binding free energy [kcal/mol]
1,GTGTTCACGTGAGGCC,0.34
2,TCGTGCACGTGTTGGA,-0.04
3,AGGTCCACGTGTGGAG,0.11
4,TTCGGCACGTGTTGGC,-0.09
5,CTTAGCACGTGGGGTA,-0.13
6,GGGAGCACGTGTGTAA,-0.03
7,AATGGCACGTGTTGTA,-0.21
8,GAATTCACGTGTTAGG,0.39
9,GGTATCACGTGCATTT,0.4
10,TGGTCCACGTGAAAGT,0.22
11,TGGCTCACGTGGAAAG,0.32
12,GCTTACACGTGGATTT,0.13
13,AGGTCCACGTGTGGGA,0.01
14,GAACGCACGTGGGAGG,-0.21
15,ACGTACACGTGTAGGG,-0.05
16,TATCGCACGTGGAAGG,-0.1
17,TTGTACACGTGAAGGA,0.19
18,ATGCGCACGTGAATGT,0.18
19,ATTTTCACGTGAGTGG,0.38
20,TGAGACACGTGTGGGT,0.03
21,TTGGTCACGTGGGGTG,0.03
22,AAGTACACGTGGATGA,0.13
23,GGGCTCACGTGGGGCT,0.1
24,TGAAGCACGTGTTGGA,-0.12
25,TTTTTCACGTGGATTG,0.23
26,CGGATCACGTGGGTCG,-0.02

row,Sequence,relative binding free energy [kcal/mol]
1,GTTGTCACGTGGGAAC,0.18
2,CGGGTCACGTGGTAAA,-0.04
3,GGAGTCACGTGGGCAG,0.01
4,GAGTGCACGTGGTAAT,-0.04
5,TGTTCCACGTGTGGAA,0.15
6,GGCGCCACGTGTGTGG,-0.04
7,AATGGCACGTGGTCGA,-0.17
8,AGGGTCACGTGTATGT,0.11
9,TTGTACACGTGGGTGG,-0.01
10,GTGTGCACGTGGAGAG,-0.07
11,AGTCGCACGTGAGAGG,0.28
12,CAAGGCACGTGTGGCG,-0.15
13,GTGGGCACGTGCTATG,-0.2
14,GTTCTCACGTGTGGGC,0.28
15,GAATTCACGTGTTCGT,0.3
16,ATGGGCACGTGCTGGG,-0.13
17,TTATTCACGTGAAAGA,0.41
18,ATGGGCACGTGAAGTA,0.03
19,TGTTACACGTGATACG,0.12
20,AATGTCACGTGTCGTG,0.15
21,GGTGACACGTGAACGG,0.33
22,TGGGTCACGTGTCCTG,0.15
